Among the data in the antibiotic and cytotoxicity screens of Wong et al. (2023) are cytotoxicity call and growth inhibition call values, retold here.

The list shows a part of the results.

One test relates to HSkMC. Nature of the test: cytotoxicity call (relative viability < 0.9). The settings on record: 10 µM.
The next test concerns HepG2. Nature of the test: cytotoxicity call (relative viability < 0.9). The settings on record: 10 µM.
The next test deals with S. aureus RN4220. Nature of the test: growth inhibition call (relative growth <= 0.2). Conditions: 50 µM.

Take `CCCC(=O)Nc1ccc2c(c1)C(=O)N(C)[C@H]1CC[C@@H](CC(=O)NCCN3CCCCC3)O[C@@H]1CO2`: the cytotoxicity call with HSkMC and with HepG2 was “inactive” each time. Further, in the test with S. aureus RN4220, the growth inhibition call is “inactive”.
In the case of `C[C@@H]1CN([C@H](C)CO)C(=O)c2cccc(NC(=O)Nc3ccc(C(F)(F)F)cc3)c2O[C@H]1CN(C)C(=O)Nc1cccc2ccccc12`, the cytotoxicity call in the test with HSkMC was “inactive”. The cytotoxicity call with HepG2 is “active”. The growth inhibition call in the test on S. aureus RN4220 was “inactive”.
Turning to `COc1ccc(COC[C@]23NC(=S)N[C@H](c4ccccc4O2)[C@@H]3CO[Si](C)(C)C(C)(C)C)cc1`, the cytotoxicity call in the test with HSkMC and in the test with HepG2 was “inactive” throughout. For the same compound, the growth inhibition call with S. aureus RN4220 was “inactive”.
With `CC(C)NC(=O)Nc1ccc2c(c1)C(=O)N([C@H](C)CO)C[C@H](C)[C@@H](CN(C)C(=O)Nc1ccc(C(F)(F)F)cc1)OCCCC[C@@H](C)O2`, the cytotoxicity call in the test on HSkMC and in the test with HepG2 was “inactive” throughout. Besides, the growth inhibition call in the test on S. aureus RN4220 was “inactive”.
For the compound `Cc1ccc(S(=O)(=O)Nc2cccc3c2O[C@H](CN(C)S(=O)(=O)c2ccc(F)cc2)[C@H](C)CN([C@H](C)CO)C3=O)cc1`, the cytotoxicity call with HSkMC and in the test with HepG2 was “inactive” each time. For the same compound, in the test on S. aureus RN4220, the growth inhibition call is “inactive”.
On to `CO[C@@H]1CN(C)C(=O)c2ccc(NC(=O)CC(F)(F)F)cc2OC[C@H](C)N(C(=O)C2CCOCC2)C[C@H]1C`, for which the cytotoxicity call in the test with HSkMC and with HepG2 was “inactive” throughout. The growth inhibition call in the test on S. aureus RN4220 is “inactive”.
`C[C@H](CO)N1C[C@H](C)[C@H](CN(C)Cc2ccc(Cl)c(Cl)c2)Oc2ccc(NS(=O)(=O)c3cccs3)cc2CC1=O`: the cytotoxicity call with HSkMC and in the test with HepG2 was “inactive” throughout. For the same compound, in the test on S. aureus RN4220, the growth inhibition call was “inactive”.
As for `C[C@@H]1CN([C@H](C)CO)C(=O)Cc2cc(NC(=O)Cc3cn(C)c4ccccc34)ccc2O[C@H]1CN(C)C(=O)Nc1ccc(C(F)(F)F)cc1`, the cytotoxicity call in the test on HSkMC and in the test with HepG2 was “inactive” throughout. The growth inhibition call in the test on S. aureus RN4220 was “inactive”.
Consider `Cc1noc(C)c1S(=O)(=O)Nc1ccc2c(c1)C(=O)N([C@@H](C)CO)C[C@@H](C)[C@@H](CN(C)C(=O)Nc1ccc3c(c1)OCO3)O2`, for which the cytotoxicity call in the test on HSkMC and in the test on HepG2 was “inactive” each time. In the test on S. aureus RN4220, the growth inhibition call is “inactive”.
Turning to `C[C@@H]1CN([C@H](C)CO)S(=O)(=O)c2ccc(-c3cccnc3)cc2O[C@@H]1CN(C)C(=O)c1cccc(F)c1`, the cytotoxicity call with HSkMC and in the test on HepG2 was “inactive” each time. Also, in the test with S. aureus RN4220, the growth inhibition call was “inactive”.
For `COc1ccc(NC(=O)N(C)C[C@@H]2OCCCC[C@H](C)Oc3ccc(NC(=O)C4CCCCC4)cc3C(=O)N([C@H](C)CO)C[C@@H]2C)cc1`, the cytotoxicity call in the test with HSkMC and with HepG2 was “inactive” each time. Further, the growth inhibition call with S. aureus RN4220 is “inactive”.
On to `C[C@@H]1CN([C@H](C)CO)C(=O)c2cc(NS(=O)(=O)c3cccs3)ccc2O[C@@H](C)CCCCO[C@H]1CN(C)S(=O)(=O)c1ccc(Cl)cc1`, for which the cytotoxicity call with HSkMC and in the test on HepG2 was “inactive” in each case. Also, the growth inhibition call with S. aureus RN4220 is “inactive”.
`Cc1noc(C)c1NC(=O)N(C)C[C@@H]1OCCCC[C@H](C)Oc2ccc(NC(=O)NC3CCCCC3)cc2C(=O)N([C@@H](C)CO)C[C@H]1C`: the cytotoxicity call in the test on HSkMC and in the test with HepG2 was “inactive” each time. Besides, the growth inhibition call in the test on S. aureus RN4220 is “inactive”.
Turning to `NC(=O)C[C@H](N)C(=O)O`, the cytotoxicity call in the test with HSkMC and with HepG2 was “inactive” in each case. In the test on S. aureus RN4220, the growth inhibition call is “inactive”.
Regarding `C[C@H](O)C#Cc1ccc2c(c1)O[C@@H](CN(C)C(=O)Nc1ccccc1)[C@H](C)CN([C@H](C)CO)S2(=O)=O`, the cytotoxicity call with HSkMC and in the test on HepG2 was “inactive” each time. In the test on S. aureus RN4220, the growth inhibition call is “inactive”.
On to `C[C@H](CO)N1C[C@H](C)[C@@H](CN(C)C(=O)Nc2cccc3ccccc23)Oc2ccc(NC(=O)Nc3ccc4c(c3)OCO4)cc2CC1=O`, for which the cytotoxicity call in the test with HSkMC is “active”. Also, the cytotoxicity call with HepG2 was “inactive”. Also, the growth inhibition call in the test on S. aureus RN4220 was “inactive”.
With `C[C@H](CO)N1C[C@H](C)[C@@H](CN(C)Cc2ccc(C(F)(F)F)cc2)Oc2ccc(NS(C)(=O)=O)cc2CC1=O`, the cytotoxicity call in the test with HSkMC and with HepG2 was “inactive” in each case. The growth inhibition call with S. aureus RN4220 is “inactive”.
With `O=C(C[C@@H]1CC[C@H]2[C@@H](COC[C@@H](O)CN2S(=O)(=O)c2cccc(Cl)c2)O1)NCCCN1CCOCC1`, the cytotoxicity call in the test on HSkMC and in the test on HepG2 was “inactive” throughout. In the test with S. aureus RN4220, the growth inhibition call is “inactive”.
Regarding `CC(=O)NCCCC[C@@H]1NC(=O)[C@@H]2C[C@H](C(=O)NCc3ccc(F)cc3)[C@H](c3ccc(O)cc3)N2C1=O`, the cytotoxicity call with HSkMC and in the test on HepG2 was “inactive” in each case. The growth inhibition call in the test with S. aureus RN4220 was “inactive”.
Take `COc1ccc([Si](C)(C)[C@H]2[C@H](CCOC(=O)NCCCCCC(=O)NO)O[C@]3(C(=O)N(Cc4ccccc4)c4ccc(NC(=O)[C@@H](C)OC(=O)NCCCCCC(=O)NO)cc43)[C@@H]2C)cc1`: the cytotoxicity call in the test with HSkMC and in the test on HepG2 was “inactive” each time. In addition, the growth inhibition call in the test with S. aureus RN4220 was “inactive”.
In the case of `CN1CCN(C(=O)C[C@@H]2CC[C@H]3[C@@H](COC[C@@H](O)CN3C(=O)C3CC3)O2)CC1`, the cytotoxicity call with HSkMC and with HepG2 was “inactive” throughout. In addition, the growth inhibition call in the test on S. aureus RN4220 was “inactive”.
Take `C[C@H](CO)N1C[C@H](C)[C@@H](CN(C)Cc2ccc(-c3ccccc3)cc2)Oc2c(NS(=O)(=O)c3ccccc3)cccc2C1=O`: the cytotoxicity call in the test on HSkMC and with HepG2 was “inactive” in each case. In addition, the growth inhibition call in the test with S. aureus RN4220 is “inactive”.
For `O=C(C[C@H]1CC[C@@H]2[C@H](COC[C@H](O)CN2C(=O)c2ccc3c(c2)OCO3)O1)NCCN1CCCC1`, the cytotoxicity call in the test with HSkMC and in the test on HepG2 was “inactive” in each case. The growth inhibition call in the test on S. aureus RN4220 is “inactive”.
As for `Cc1ccc(S(=O)(=O)N[C@H]2CC[C@H](CCNC(=O)CN3CCOCC3)O[C@@H]2CO)cc1`, the cytotoxicity call with HSkMC and in the test with HepG2 was “inactive” each time. The growth inhibition call in the test with S. aureus RN4220 is “inactive”.
For `Cc1ccc(S(=O)(=O)N(C)C[C@H]2OCCCC[C@H](C)Oc3ccc(NC(=O)CCC(F)(F)F)cc3C(=O)N([C@@H](C)CO)C[C@H]2C)cc1`, the cytotoxicity call in the test on HSkMC (human skeletal muscle cells) and in the test with HepG2 was “inactive” throughout. Besides, in the test on S. aureus RN4220, the growth inhibition call was “inactive”.
Take `C[C@H](CO)N1C[C@H](C)[C@@H](CN(C)S(=O)(=O)c2cn(C)cn2)Oc2ccc(NS(C)(=O)=O)cc2CC1=O`: the cytotoxicity call with HSkMC and in the test with HepG2 was “inactive” in each case. Moreover, in the test on S. aureus RN4220, the growth inhibition call is “inactive”.
